The campaign covered roughly 52,000 compounds. About 1,700 (3.3%) were called active. No stated cut-off is given here; in the data, active means survival mostly below about 52% (no sharp cut-off); inactive means mostly above about 56%. The list shows a part of the results.
system: Wild type; assay: growth inhibition of S. aureus wild type versus tarO mutant, primary screen, teichoic acid synthesis inhibitors, RN4220, OD600 (AID 463173); conditions: S. aureus RN4220 wild type/DeltatarO growth, OD600, 18 h, stronger effect = lower value, screened at 18.75 µg/mL (by protocol)

Structure (SMILES) | survival
CCCNC(=O)c1c2c(nc3ccccc13)C(=O)N(C1CCCCC1)C2 | inactive: 59%
COc1cccc(-c2cc(C(=O)Nc3ccc(F)cc3)[nH]n2)c1 | inactive: 102%
O=C(NCC1CCCO1)Nc1ccccc1 (stereo unspecified) | inactive: 105%
CC1CCN(S(=O)(=O)c2ccc(S(=O)(=O)NCc3ccccc3)cc2)CC1 | inactive: 104%
COc1ccc(OC)c(NC(=O)CCN2CCC(C)CC2)c1 | inactive: 111%
CC1C(=O)N2CCCc3cc(S(=O)(=O)Nc4ccc(Br)cc4F)cc1c32 (stereo unspecified) | inactive: 72%
CCOc1cc(-c2nnc(SCC(=O)NCc3ccc(C)cc3)nc2-c2ccc(OC)c(OCC)c2)ccc1OC | inactive: 70%
COc1ccc(OC)c(NC(=O)c2nc(SCc3ccccc3F)ncc2Cl)c1 | inactive: 101%
COc1cccc(NC(=O)C2CCCN2S(=O)(=O)c2ccc3c(c2)n(C)c(=O)c(=O)n3C)c1 (stereo unspecified) | inactive: 68%
CCc1cccc(-n2c(=O)c3cccnc3n2CC(=O)Nc2ccccc2C(=O)OC)c1 | inactive: 102%
CCOc1ccc(NC(=O)c2ccc3nc(Cc4ccccc4)oc3c2)cc1 | inactive: 101%
Cc1ccc2oc(C(=O)Nc3sc4c(c3C(=O)NCc3ccccc3)CCCC4)cc(=O)c2c1 | inactive: 83%
CCC1CN(C(=O)Nc2cc(OC)cc(OC)c2)c2ccccc2S1 (stereo unspecified) | inactive: 113%
COc1ccc(-n2nc3cc(C)c(NC(=O)c4ccc(C)cc4C)cc3n2)cc1Cl | inactive: 69%
Cc1ccccc1NC(=O)N1CCC(CN2CCCC2)CC1 | inactive: 70%
Cc1ccc(OCC(=O)OCc2cc(=O)n3c(C)csc3n2)cc1 | inactive: 82%
CCC(=O)N1CCc2cc(S(=O)(=O)NC(Cc3ccccc3)C(=O)NCc3ccc(F)cc3)ccc21 (stereo unspecified) | inactive: 83%
N#CC1=C2SCN(C3CCCCC3)CN2C(=O)CC1c1ccc(F)cc1 (stereo unspecified) | inactive: 87%
O=C(CSc1nc2c([nH]c3ccccc32)c(=O)n1-c1ccccc1)Nc1ccccc1F | inactive: 72%

Structure (SMILES) | survival
Cc1ccc(-c2c(C)n3c4c(=O)n(C)c(=O)n(C)c4nc3n2CCCO)cc1 | inactive: 80%
CCOc1ccc(NC(=O)C2CCCN(S(=O)(=O)c3ccc(Br)s3)C2)cc1 (stereo unspecified) | inactive: 75%
COc1ccc(C(=O)Nc2cccc(-c3nc4cccnc4s3)c2C)c(OC)c1 | inactive: 118%
CCOC(=O)c1ccccc1NC(=O)Cn1c(=O)n(Cc2ccc(C(=O)NCc3ccc4c(c3)OCO4)cc2)c(=O)c2ccccc21 | inactive: 95%
CC(=O)N1c2c(cc(Br)cc2S(=O)(=O)Nc2ccccc2C)CC1C (stereo unspecified) | inactive: 64%
Cc1cccc(C(=O)NC(=O)Nc2ccc(-n3nc(C(F)(F)F)cc3C(F)(F)F)cc2)c1 | inactive: 78%
CC(=O)N1CCCc2cc(S(=O)(=O)N3CCC(N(C)C(C)C)CC3)ccc21 | inactive: 128%
CCOc1cc(Br)c(C2C(C(=O)OC)=C(C)NC3=C2C(=O)c2ccccc23)cc1OCC (stereo unspecified) | inactive: 96%
COCCCNC(=O)C1CCN(c2ncnc3c2nc2n3CCCCC2)CC1 | inactive: 89%
O=C(Nc1cccc(C(F)(F)F)c1)c1ccc(F)c(S(=O)(=O)N2CCc3ccccc3C2)c1 | inactive: 81%
Cc1c2cnn(CC(=O)NCc3ccc(F)cc3)c(=O)c2c(C)n1Cc1ccccc1Cl | inactive: 94%
COc1ccc(-c2nc(C)c(CCNC(=O)c3ccccc3Br)s2)cc1OC | inactive: 64%
COc1cccc(Cn2cnc3c2c(=O)n(C)c(=O)n3C)c1 | inactive: 135%
COc1ccc2c(c1)c1c(c(=O)n(-c3ccc(C)cc3)c(=O)n1CC(=O)Nc1cc(C)ccc1C)n2C | inactive: 115%
Cc1nc2c(C(=O)NCCC(C)C)cnn2c(C)c1Cc1c(F)cccc1Cl | inactive: 45%
CCC(C)NC(=O)C1CCN(S(=O)(=O)c2ccc3c(ccn3CC)c2)CC1 (stereo unspecified) | active: 0%
O=C(O)c1ccccc1NC(=O)N1c2ccccc2Sc2ccccc21 | inactive: 28%
COc1ccccc1CNC(=O)c1cc2cc(S(=O)(=O)N3CCCCC3)ccc2n1C | inactive: 83%
CCOC(=O)C1CCCN(C(=O)C2CCN(S(=O)(=O)c3c(C)noc3/C=C/c3ccc(C)cc3)CC2)C1 (stereo unspecified) | inactive: 66%

Structure (SMILES) | survival
COc1cccc2sc(N(Cc3cccnc3)C(=O)c3ccc(S(=O)(=O)N(C)C)cc3)nc12 | inactive: 77%
COc1cc2c(cc1OC)C(c1cc(OC)c(O)c(OC)c1)CC(=O)N2 (stereo unspecified) | inactive: 80%
CC1CCCN(Cc2c(O)ccc3c(=O)c(-c4ccc(Cl)cc4)c(C(F)(F)F)oc23)C1 (stereo unspecified) | inactive: 71%
Cc1cc(OCC(=O)Nc2ncn[nH]2)c(C)c(C)c1Br | inactive: 133%
CC(=O)NC1=NN(C(C)=O)C(C)(CS(=O)(=O)c2ccc(C)c(C)c2)S1 (stereo unspecified) | inactive: 112%
O=S(N1CCCCC1)C12CC3CC(CC(C3)C1)C2 (stereo unspecified) | inactive: 123%
Cc1cc(C)cc(N2C(=O)CS(=O)(=O)C23C(=O)N(Cc2ccccc2)c2ccccc23)c1 (stereo unspecified) | inactive: 85%
CCc1cc(=O)[nH]c(SCc2nc(-c3ccccc3C)no2)n1 | inactive: 91%
N#Cc1nc(COc2ccc(Cl)cc2)oc1NCc1ccco1 | inactive: 109%
CCOC(=O)C1CCN(c2ncnc3c2c(-c2ccccc2)cn3-c2ccc(C)c(Cl)c2)CC1 | inactive: 68%
COc1nnc(-c2ccc(N3CCCCC3)c(NC(=O)c3ccc(Cl)cc3)c2)c2ccccc12 | inactive: 96%
COc1ccc(-c2cc(C(F)(F)F)nc(SCC(=O)Nc3ccc(C(C)=O)cc3)n2)cc1 | inactive: 60%
O=C(NCCc1csc(-c2ccc(F)cc2)n1)C(=O)Nc1ccc(Cl)cc1 | inactive: 70%
O=C1NC(=O)C(c2ccccc2)(c2ccccc2)N1 | inactive: 86%
COc1ccc(OC)c(NC(=O)c2nc(SCc3ccc(F)cc3)ncc2Cl)c1 | inactive: 100%
O=C(/C=C1\NC2(CCCC2)Cc2ccccc21)N1CCOCC1 | inactive: 111%
CCC(=O)N1c2ccc(S(=O)(=O)NCCc3ccccc3)cc2CC1C (stereo unspecified) | inactive: 72%
O=C(/C=C/c1cn(CC(O)CN2CCc3ccccc32)c2ccccc12)c1ccc(Br)cc1 (stereo unspecified) | inactive: 70%

From PubChem BioAssay AID463173 (ICCB-Longwood Screening Facility, Harvard Medical School, 2010)
